Data as given in the supplement of paper PMC12217912.
The other results are listed elsewhere or left out. Sequences were assembled here from the parent chain. Values near 0.05 are background.

B1: TEV protease; numbered along this chain (parent)
chain: MGESLFKGPRDYNPISSSICHLTNESDGHTTSLYGIGFGPFIITNKHLFRRNNGTLVVQSLHGVFKVKDTTTLQQHLVDGRDMIIIRMPKDFPPFPQKLKFREPQREERICLVTTNFQTKSMSSMVSDTSCTFPSGDGIFWKHWIQTKDGQCGSPLVSTRDGFIVGIHSASNFTNTNNYFTSVPKNFMELLTNQEAQQWVSGWRLNADSVLWGGHKVFMVKPEEPFQPVKEATQL

Variants of: B1
Test: raw area under fraction-flipped curve 0-4 h after induction (AUC4h, not background-subtracted), DNA-recorder readout of cleavage of the substrate (dimensionless); higher = more cleavage of the substrate by the protease variant
Conditions: temperature: 34 °C; time window: 0-4 h after rhamnose induction
Method: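 In vivo DNA recorder in E. coli TOP10(DE3) ΔrhaA at 34 °C. Each TEVp single-site mutant (parent TEVp 0) is paired with a single-site variant of the 7-mer TEVs (canonical ENLYFQ|S). The substrate sits between flexible linkers in a Bxb1-sfGFP-TEVs-SsrA fusion, so cleavage stabilises Bxb1 and speeds flipping of a recombination array, read by NGS. The value is the raw area under the fraction-flipped curve over 0-4 h after rhamnose induction (AUC4h), with ≥20 reads per time point. It is not background-subtracted; inactive controls average about 0.047.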
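Note: Bxb1 expression induced with 0.2% (w/v) L-rhamnose at OD600 near 0.5, cultures sampled hourly, flipped fraction per protease–substrate barcode pair counted by paired-end Illumina sequencing.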

| Variant | area with substrate ENLYAQS | area with substrate ENLYCQS | area with substrate ENLYDQS | area with substrate ENLYEQS | area with substrate ENLYGQS | area with substrate ENLYHQS | area with substrate ENLYKQS | area with substrate ENLYMQS | area with substrate ENLYNQS | area with substrate ENLYPQS | area with substrate ENLYQQS | area with substrate ENLYTQS | area with substrate ENLYVQS | area with substrate ENLYYQS | area with substrate ENLYIQS | area with substrate ENLYLQS | area with substrate ENLYSQS | area with substrate ENLYWQS | area with substrate ENLYRQS |
| --- | --- | --- | --- | --- | --- | --- | --- | --- | --- | --- | --- | --- | --- | --- | --- | --- | --- | --- | --- |
| MGESLFKGPRDYNPISSSICHLTNESDGHTTSLYGIGFGPFIITNKHLFRRNNGTLVVQSLHGVFKVKDTTTLQQHLVDGRDMIIIRMPKDFPPFPQKLKFREPQREERICLVTTNFQTKSMSSMVSDTSCTFPSGDGIFWKHWIQTKDGQCGSPLVSTRKGFIVGIHSASNFTNTNNYFTSVPKNFMELLTNQEAQQWVSGWRLNADSVLWGGHKVFMVKPEEPFQPVKEATQL [D161K] | 0.0656 | 0.0586 | 0.0582 | 0.0543 | 0.0643 | 0.0621 | 0.0566 | 0.0507 | 0.047 | 0.049 | 0.0442 | 0.0462 | 0.0745 | 0.0528 | – | – | – | – | – |
| MGESLFKGPRDYNPISSSICHLTNESDGHTTSLYGIGFGPFIITNKHLFRRNNGTLVVQSLHGVFKVKDTTTLQQHLVDGRDMIIIRMPKDFPPFPQKLKFREPQREERICLVTTNFQTKSMSSMVSDTSCTFPSGDGIFWKHWIQTKDRQCGSPLVSTRDGFIVGIHSASNFTNTNNYFTSVPKNFMELLTNQEAQQWVSGWRLNADSVLWGGHKVFMVKPEEPFQPVKEATQL [G150R] | 0.0579 | 0.0679 | 0.0576 | 0.0601 | 0.047 | 0.0576 | 0.0593 | 0.0587 | 0.0566 | 0.0508 | 0.0943 | 0.047 | 0.0597 | 0.0616 | 0.0652 | 0.0536 | 0.0705 | 0.0584 | – |
| MGESLFKGPRDYNPISSSICHLTNESDGHTTSLYGIGFGPFIITNKHLFRRNNGTLVVQSLHGVFKVKDTTTLQQHLVDGRDMIIIRMPKDFPPFPQKLKFREPQREERICLVTTNFQTKSMSSMVSDTSCTFPSGDGIFWKHWIQTKDGQCGSSLVSTRDGFIVGIHSASNFTNTNNYFTSVPKNFMELLTNQEAQQWVSGWRLNADSVLWGGHKVFMVKPEEPFQPVKEATQL [P155S] | 0.0482 | – | – | 0.0577 | 0.045 | 0.0551 | 0.0586 | 0.0557 | 0.0605 | 0.0466 | 0.0604 | 0.0685 | 0.0578 | 0.0055 | 0.0647 | 0.0605 | – | – | 0.0535 |
| MGESLFKGPRDYNPISSSICHLTNESDGHTTSLYGIGFGPFIITNKHLFRRNNGTLVVQSLHGVFKVKDTTTLQQHLVDGRDMIIIRMPKDFPPFPQKLKFREPQREERICLVTTNFQTKSMSSMVSDTSCTFPSGDGIFWKHWIQTKDGQCGSALVSTRDGFIVGIHSASNFTNTNNYFTSVPKNFMELLTNQEAQQWVSGWRLNADSVLWGGHKVFMVKPEEPFQPVKEATQL [P155A] | 0.0788 | – | 0.0593 | 0.0472 | 0.0948 | 0.0654 | 0.0518 | 0.0792 | 0.0664 | – | 0.0846 | 0.0826 | 0.114 | 0.0596 | 0.121 | – | 0.0896 | 0.0816 | – |
